Laboratory results as given in article PMC12040169 (PLOS Biology, 2025).
The other results are listed elsewhere or left out.

Tested on: T1, C. trachomatis L2/434/Bu expressing GFP (CTL2-GFP)
T1 construct: L2/434/Bu GFP intracellular growth in HeLa cells
Set-up: species or system HeLa; C. trachomatis total inclusion area by high-content imaging, normalised to DMSO
Conditions: total inclusion area; 28.5 h, 10 µM; inhibitor
Procedure, shortened: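 Host cell viability was gauged from Hoechst-stained nuclei counts, while chlamydial growth was taken from total inclusion area and inclusion number per well. Cells were fixed and imaged by high-content microscopy once bulk GFP and resorufin fluorescence had been measured.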

Structure (SMILES) | % of control remaining
COCC(=O)N(C)C(CO)c1cc(OC)ccc1Br (stereo not drawn) [CBK304780] | 73.098
CCNC(=O)N1CC2(CCN(CCSC)CC2)c2ccccc21 [CBK126709] | 86.3537
O=C(CN1CCC(NC(=O)c2cccs2)CC1)Nc1cc(F)ccc1F [CBK305997] | 50.9678
c1ccc(C(CCN2CCc3ccccc3C2)c2ccccc2)cc1 [CBK126404] | 97.9785
Cc1nn(-c2ccc(F)cc2)c(C)c1C(=O)NCc1ccnc(N2CCCC2)c1 [CBK296700] | 67.4745
Cn1ncc(Nc2ccccc2)c1C(=O)O [CBK013004] | 29.14
CCCCN(Cc1ccccc1)C(=O)[C@H]1CCCC[C@H]1C(=O)O [CBK286596] | 97.1552
Cn1cnc([N+](=O)[O-])c1Sc1cccs1 [CBK002620] | 46.4949
CC(C)(C)OC(=O)N1Cc2c(-c3noc(C4CC4)n3)ncn2-c2ccc(Cl)cc21 [CBK007792] | 62.3975
COC(=O)CCC(=O)Nc1snnc1-c1ccc(Cl)cc1 [CBK153241] | 95.609
c1cc(N2CCN(CCN3CCCC3)CC2)ncc1-c1ccc2c(c1)OCO2 [CBK037769] | 86.6158
CC(=O)Nc1nnn(CCOc2nonc2C)n1 [CBK027320] | 103.516
COCCNc1cc(-c2ccc(C(C)=O)s2)ncn1 [CBK090791] | 134.879
Cc1nnc(CS(=O)(=O)Cc2csc(C(C)C)n2)n1C1CC1 [CBK304106] | 38.33
COc1ccc(CNC(=O)c2cc(S(=O)(=O)N(C)C)ccc2OC)cc1 [CBK307586] | 57.4524
CN1CCC(NC(=O)c2cc3ccccc3[nH]2)CC1 [CBK168633] | 82.9404
O=C(CC1Sc2ccccc2NC1=O)Nc1ccc([N+](=O)[O-])c(F)c1 (stereo not drawn) [CBK264717] | 98.8453
Cc1ccc(C(C)C(=O)N2CCC(O)(Cn3ccnc3C)CC2)cc1 (stereo not drawn) [CBK284660] | 92.3404
CC(C)C(=O)N1CCC(OCc2ccc(-c3ccc(C(=O)N(C)C)cc3)cc2S(C)(=O)=O)CC1 [CBK155921] | 68.7246
CN1CCN(CCC(=O)N2CCN(c3ncccn3)CC2)CC1 [CBK144520] | 56.6185
OC(CN1CCOCC1)Cn1c(-c2ccccc2)c(-c2ccccc2)c2ccc3ccccc3c21 (stereo not drawn) [CBK263996G] | 27.2817
Cc1ccc(C(Cc2ccsc2)NS(=O)(=O)c2ccc3[nH]c(=O)[nH]c(=O)c3c2)nc1 (stereo not drawn) [CBK286354] | 115.448
CCOc1ccccc1C(=O)N1CCC(Cc2cccc(-c3cccs3)c2)(C(N)=O)CC1 [CBK285914] | 100.984
Cc1nnsc1C(=O)N1CCN(c2cc(C(F)(F)F)ccn2)CC1 [CBK008467] | 50.643
CC(=O)c1ccc(NC(=O)O[C@@H]2CO[C@H]3[C@@H]2OC[C@@H]3NC(=O)C2CCC2)cc1 [CBK289475] | 106.805
CC(C)C(=O)N1CC(C)N(CCCC(c2ccc(F)cc2)c2ccc(F)cc2)CC1C (stereo not drawn) [CBK024961C] | 56.0445

Structure (SMILES) | % of control remaining
CCCc1c(C(=O)N2CCN(c3ncccn3)CC2)cnn1-c1cc(Cl)cc(Cl)c1 [CBK107383] | 96.9197
COc1ccc(CCNC(=O)c2cnc3scc(C)n3c2=O)cc1 [CBK287291] | 69.9957
Cc1nc2ccc(NC(=S)N3CCN(c4ccccn4)CC3)cc2nc1C [CBK267227] | 98.6567
COc1ccc(S(=O)(=O)NC(=O)NCC2CC3C=CC2C3)cc1 (stereo not drawn) [CBK022821] | 126.373
O=C(CC12CC3CC(CC(C3)C1)C2)NCC(=O)Nc1ccc2[nH]c(=O)[nH]c2c1 [CBK295349] | 84.2204
CC(C)NC(=O)NC[C@H]1C[C@@H]2CCN1C[C@@H]2c1cc(C2CCCC2)nn1C [CBK288744] | 98.5106
COCCn1c(=O)c2c(nc3oc(C(C)(C)C)cn32)n(C)c1=O [CBK307566] | 87.5901
C=CCn1c(Cc2csc(NC(=O)Cc3ccc(Cl)cc3)n2)n[nH]c1=S [CBK295359] | 102.761
O=S(=O)(O)CCCSc1nc2ccccc2o1 [CBK026507N] | 97.4589
CN(C)CCNC(=O)c1cccc(-c2cc(N3CCCN(C)CC3)n3nccc3n2)c1 [CBK037143] | 101.849
CC(NC(=O)C1CCN(CCOc2ccc(F)cc2)CC1)c1cccc2ccccc12 (stereo not drawn) [CBK148634] | 75.7117
CC[C@H]1CN(C(C)=O)CC[C@H]1CC(=O)Nc1nccs1 [CBK289130] | 84.6272
COc1ccc([C@@]23CC[C@@H](NC(=O)Nc4cccc(Br)n4)C[C@@H]2N(C)CC3)cc1OC [CBK045703] | 76.6442
CCCC(NC(=O)c1cccc(-n2cnnc2)c1)c1cccs1 (stereo not drawn) [CBK282745] | 96.7714
COc1ccc(C(=O)N2CCN(c3ccc(NC(=O)c4cccnc4)cc3)CC2)cc1 [CBK270200] | 114.718
COc1cc(CNCCO)ccc1OCc1cccc(Cl)c1 [CBK270013C] | 60.6101
Cn1cc(C(C(=O)O)N2CCN(c3ccccc3)CC2)c2cc(C(=O)O)ccc21 (stereo not drawn) [CBK286627] | 60.7293
CCOc1cc(Cl)c(S(=O)(=O)NCCCN2CCOCC2)cc1Cl [CBK268781] | 88.0572
CN(C)[C@@H]1CN(C(=O)C2CC2)C[C@H]1c1cn(C)c2ccccc12 [CBK282681] | 108.624
COc1ccccc1N1CCN(C(=O)c2c(Cl)cnn2C)CC1 [CBK288247] | 100.953
Cc1nc(-c2ccccc2)sc1C(=O)C1=C(O)C(=O)N(CCCN2CCOCC2)C1c1ccco1 (stereo not drawn) [CBK266476] | 101.373
O=S(=O)([O-])CCC[n+]1c(/C=C/Nc2ccccc2)oc2ccc3ccccc3c21 [CBK261082] | 83.4883
CC1(C)CC(=O)c2sc(NS(=O)(=O)c3sc(Cl)cc3Br)nc2C1 [CBK200029] | 81.9914
Cc1cc(Br)ccc1NC(=O)Cn1cnc2c1c(=O)n(C)c(=O)n2C [CBK133289] | 95.9895
O=c1c(Oc2ccccc2Br)c(C(F)(F)F)oc2c(CN3CCCC3)c(O)ccc12 [CBK217827] | 106.982
Cc1ccc(C(=O)N2CCCN(C(=O)CN3CCCC3)C2)cc1 [CBK039081] | 72.3736

Structure (SMILES) | % of control remaining
CCOc1c(OC)cc(C#N)cc1C(=O)O [CBK269925] | 95.7941
O=C(O)CCC(=O)Nc1ccccc1C(=O)N1CCCCC1 [CBK266100] | 98.5489
OCCC1CCCCN1c1nccnc1-c1ccsc1 (stereo not drawn) [CBK037358] | 76.0812
Cc1ccccc1-n1nc(C)c(CN(C)CC2CCN(C)C2)c1C (stereo not drawn) [CBK283035] | 112.831
COc1cc(OC)cc(C(=O)N2CCC3(CC2)CC(=O)c2c(OC)cc(OC)cc2O3)c1 [CBK164233] | 138.49
Cc1cccc(OCCn2c(CCNC=O)nc3ccccc32)c1C [CBK269539] | 97.7957
CC(=O)Nc1ccc(S(=O)(=O)Nc2ccc(-c3nc4cc(C(=O)c5ccccc5)ccc4[nH]3)cc2)cc1 [CBK267819] | 101.772
CC(NC(=O)CCCC(=O)c1cccs1)c1cccc2ccccc12 (stereo not drawn) [CBK297748] | 66.0642
CC(Sc1nc(N(C)C)nc(N2CCOCC2)n1)C(=O)Nc1ccc(Cl)c(Cl)c1 (stereo not drawn) [CBK269229] | 60.7496
CCOCCCNC(=O)C1CCN(c2cccc(F)c2C#N)CC1 [CBK306341] | 38.1909
CCNC(=O)O[C@@H]1CO[C@H]2[C@@H]1OC[C@@H]2NC(=O)Nc1ccc(C(C)=O)cc1 [CBK289473] | 93.3792
COc1ncccc1NC(=O)CSCC#N [CBK306314] | 79.8574
Cc1ccccc1NC(=O)Cc1nc(CN2CCC3(CCOC3)C2)cs1 (stereo not drawn) [CBK304164] | 107.854
CC(=O)N(C)c1ncc(Br)cc1C(=O)NCCc1ccccc1 [CBK076543] | 108.941
CCC1CCCCN1C(=O)Cn1cnc2c(Cl)cc(Cl)cc2c1=O (stereo not drawn) [CBK305833] | 99.1272
COc1ccc(-c2ccc(-c3cc(C(=O)O)c4ccccc4n3)o2)cc1 [CBK300542] | 57.4435
COC(=O)[C@H]1CCc2ccccc2N1C(=O)C1CCC1 [CBK285478] | 67.5197
O=C(O)CCC(NC(=O)c1ccc(Cl)cc1)C(=O)O (stereo not drawn) [CBK263597] | 102.267
Cn1nnnc1SCC(=O)Nc1ccc(C(=O)O)cc1 [CBK267442] | 100.34
COCc1cc(CC2(NCc3ccc(NC(C)=O)cc3)COC2)no1 [CBK289701] | 140.248
O=C(NC1CCCCCC1)c1[nH]nc(O)c1Cc1c(Cl)cccc1Cl [CBK107847] | 99.9267
Cc1cc(C)cc(NC2=N[C@H]3[C@@H](O)[C@H](O)C[C@H](C(=O)N4CCCCC4)[C@H]3S2)c1 [CBK288952] | 109.279
O=C(c1cccs1)N1CCC2(CC1)Nc1ccccc1-n1cccc12 [CBK283489] | 94.6339
O=C(c1ccccc1CCc1ccccc1)N1CCN(Cc2ccc3c(c2)OCO3)CC1 [CBK268623] | 88.9451
CSc1ccc(C(NC(=O)OC(C)(C)C)C(=O)O)cc1 (stereo not drawn) [CBK287196] | 96.7496
CCOC(=O)C1(C2CCCCC2)CCN(C(=O)c2cc[nH]c2)CC1 [CBK137103] | 133.719
